Test results reported in article PMC4336329 (PLoS ONE, 2015).
About 2,200 (0.71%) of roughly 310,000 compounds showed an effect of 50% or more. Effects have a minus sign here. This is one part of the list.

What follows are compounds tested against human ether-à-go-go-related gene (hERG) potassium channel (human, UniProt Q12809) (assay: primary screen, population patch clamp on CHO cells stably expressing hERG).
Sequence of human ether-à-go-go-related gene (hERG) potassium channel (Q12809 whole entry, looked up): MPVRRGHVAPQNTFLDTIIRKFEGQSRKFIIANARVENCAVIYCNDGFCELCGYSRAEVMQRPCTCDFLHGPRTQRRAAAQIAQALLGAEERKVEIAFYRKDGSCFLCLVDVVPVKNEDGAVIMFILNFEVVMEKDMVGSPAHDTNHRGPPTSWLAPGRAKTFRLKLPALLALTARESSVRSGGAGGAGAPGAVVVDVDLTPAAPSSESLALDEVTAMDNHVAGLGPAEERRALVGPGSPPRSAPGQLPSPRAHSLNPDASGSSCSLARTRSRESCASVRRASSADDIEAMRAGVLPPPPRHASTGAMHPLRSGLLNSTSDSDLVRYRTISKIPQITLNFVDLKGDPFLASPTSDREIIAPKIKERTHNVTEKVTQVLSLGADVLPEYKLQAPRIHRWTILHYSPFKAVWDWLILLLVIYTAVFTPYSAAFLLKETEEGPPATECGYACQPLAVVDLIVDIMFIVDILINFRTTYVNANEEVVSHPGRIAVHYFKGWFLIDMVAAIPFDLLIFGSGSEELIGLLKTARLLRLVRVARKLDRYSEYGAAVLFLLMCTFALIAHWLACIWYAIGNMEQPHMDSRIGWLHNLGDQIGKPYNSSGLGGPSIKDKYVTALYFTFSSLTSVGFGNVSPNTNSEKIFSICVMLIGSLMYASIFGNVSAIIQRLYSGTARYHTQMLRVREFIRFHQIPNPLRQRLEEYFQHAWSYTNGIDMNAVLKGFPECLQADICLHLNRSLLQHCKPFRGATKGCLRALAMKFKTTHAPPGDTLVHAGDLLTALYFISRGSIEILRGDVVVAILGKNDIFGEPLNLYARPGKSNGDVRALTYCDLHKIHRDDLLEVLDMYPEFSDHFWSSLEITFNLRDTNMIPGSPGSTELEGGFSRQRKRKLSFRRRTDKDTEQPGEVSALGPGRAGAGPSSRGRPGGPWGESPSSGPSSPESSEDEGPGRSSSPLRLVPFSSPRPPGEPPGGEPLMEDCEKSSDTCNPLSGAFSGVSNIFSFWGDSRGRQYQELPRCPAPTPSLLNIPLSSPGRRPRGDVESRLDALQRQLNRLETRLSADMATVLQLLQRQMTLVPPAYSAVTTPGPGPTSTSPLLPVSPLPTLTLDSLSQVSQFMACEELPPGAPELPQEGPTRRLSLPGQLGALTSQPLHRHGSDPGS

Row | SMILES | hERG current change (%, negative = inhibition) at 1uM [%]
1 | O=C(O)CN(c1ccccc1)C1SC(=O)NC1=O (stereo not drawn) | 5.91
2 | O=C(CSc1ccc2nnc(-c3ccccc3)n2n1)NCC1CCCO1 (stereo not drawn) | 2.68
3 | Cc1ncc(/C=C2\C(=O)Nc3ccccc32)[nH]1 | 13.6
4 | Cc1ccccc1Cn1c(-c2cncs2)nc2ccccc21 | 5.21
5 | CCC1Sc2ccc(S(=O)(=O)CCC(=O)NCc3cccs3)cc2NC1=O (stereo not drawn) | 11.2
6 | c1ccc(CN=C2NN=C(c3ccccc3)CS2)cc1 | 16.4
7 | CCOc1ccc(OCC)c(NC(=O)CN(c2ccc(OC)cc2)S(=O)(=O)c2c(C)noc2C)c1 | 15.7
8 | CCc1nc2ccccc2c(C(=O)Nc2cc(C)ccc2C)c1C | 4.44
9 | COc1cccc(C(c2sc3ncnn3c2O)N2CCN(C(=O)c3ccco3)CC2)c1 (stereo not drawn) | -13.3
10 | Cc1ccc(S(=O)(=O)Oc2ccccc2/C=N/O)cc1 | 7.57
11 | O=C1CN(C(=O)c2cc(F)cc(F)c2)c2ccccc2N1 | 1.48
12 | Cc1ccc(-c2cc(C(F)(F)F)n3nc(C(=O)Nc4c(C)n(C)n(-c5ccccc5)c4=O)cc3n2)cc1 | -1.98
13 | CCN(CC)C(=O)COc1c(-c2ccco2)oc2ccccc2c1=O | 9.53
14 | CCCCN(C)CCOc1ccccc1OCC.O=C(O)C(=O)O | 7.28
15 | Cc1ccc(NC(=O)CNCCCN2CCOCC2)cc1S(=O)(=O)N1CCCCC1.O=C(O)C(=O)O | 8.24
16 | CCOC(=O)CC1C(=O)NCCN1C(=S)NC(=O)c1ccccc1OC (stereo not drawn) | 16.8
17 | Cc1ccc(-c2nnc(CN3CCCCC3C)o2)cc1 (stereo not drawn) | 3.3
18 | C/C(=N\NC(=O)c1cccs1)c1ccc2c(c1)OCO2 | 8.4
19 | CCOc1ccc(N(C)S(=O)(=O)c2ccc(C)c(C(=O)Nc3nnc(C4CC4)s3)c2)cc1 | 12.4
20 | O=C(CN1CCN(Cc2ccccc2Cl)C1=O)NC1CCCCCC1 | 7.78
21 | COc1ccc2nc(NC(=O)CSc3nccc(C)n3)sc2c1 | -2.35
22 | O=C(CN1C(=O)NC2(CCCc3ccccc32)C1=O)c1ccc(Br)cc1 (stereo not drawn) | -1.44
23 | COC(=O)CSc1nc(NCC(C)C)nc(N2CCOCC2)n1 | 0.72

Row | SMILES | hERG current change (%, negative = inhibition) at 1uM [%]
24 | CN(Cc1ccccc1)C(=O)NC1CCCCC1 | -8.06
25 | Cc1ccc(SCC(=O)Nc2ccc(S(=O)(=O)Nc3ncccn3)cc2)cc1 | 9.51
26 | CC(=O)c1ccc(N(C(=O)Cn2nnc3ccccc32)C(C(=O)NCc2ccccc2)c2ccccn2)cc1 (stereo not drawn) | -10.6
27 | COCCNC(=O)C1(S(=O)(=O)c2ccccc2)CC=CC1 | 5.27
28 | CCOC(=O)c1ccc(NC(=O)CC2OCCN(CC)C2=O)cc1 (stereo not drawn) | 4.02
29 | C=C(C)COc1ccc(-c2nc(N)ncc2Oc2ccccc2OCC)c(O)c1 | 11
30 | O=C(c1cccnc1Cl)N1CCOCC1 | 20.2
31 | CCOC(=O)CCCNC(=O)COc1ccccc1C#N | 16.9
32 | Cc1cccc(N(C(=O)c2snc(C(N)=O)c2N)C(C(=O)NCC2CCCO2)c2ccc(N(C)C)cc2)c1 (stereo not drawn) | 19.7
33 | CC(C)(C)c1ccc(NC(=O)COC(=O)CCc2nc3ccccc3c(=O)[nH]2)cc1 | 15.1
34 | Oc1ccc(-c2nnc(SCC3CCCCC3)o2)cc1 | 7.92
35 | Cc1c(C)c2ccc(OCC(=O)Nc3cccnc3)c(C)c2oc1=O | 13.1
36 | CNC(=O)COC(=O)c1cc2c(C)nn(-c3ccc(F)cc3)c2s1 | -6.54
37 | Cc1ccc(-c2cc(C(F)(F)F)n3ncc(C(=O)N4CCCc5ccccc54)c3n2)cc1 | 8.82
38 | CN(Cc1cccs1)S(=O)(=O)c1ccc(Cl)cc1F | 8.81
39 | O=C(Nc1cccc2nsnc12)c1cccnc1 | 7.94
40 | CC(C)n1nccc1N(Cc1ccc(Cl)cc1)S(=O)(=O)c1ccccc1 | 2.65
41 | CCOc1ccc(OCc2ccc(C(=O)Nc3cccnc3)cc2)cc1 | 16.5
42 | Cc1ccccc1NC(=O)CCN1CCCC1.Cl | 5.51
43 | CC(=O)Nc1ccccc1C(=O)C(=O)Nc1cccc(C(=O)NCC2CCCO2)c1 (stereo not drawn) | 11
44 | O=C1C2C3CCCC3=C3CCCC3C2C(=O)N1c1cccc(Cl)c1 (stereo not drawn) | 10.8
45 | Cc1ccccc1C(=O)Nc1c(C)[nH]c(=O)[nH]c1=O | 6.76
46 | NC(=O)[C@@H]1CCCN1C(=O)[C@@H](Cc1cnc[nH]1)NC(=O)[C@@H]1CCC(=O)N1 | 4.72

Row | SMILES | hERG current change (%, negative = inhibition) at 1uM [%]
47 | Cc1ccc(N/N=C(\C#N)C(N)=S)cc1C | -1.43
48 | COc1ccc(NC(=O)CSc2nnc(Cc3ccccc3)c(=O)n2N)cc1OC | 3.22
49 | CCOC(=O)Cc1cc(OC)c(OC)cc1Cc1cc(OC)c(OC)cc1CC(=O)OCC | 15.4
50 | COc1ccc(NC(=S)Nc2cccc(Cl)c2)cc1OC | 14
51 | Cc1ccccc1Cn1c2ccccc2c2cn[nH]c(=O)c21 | 17.5
52 | Cl.OC(COCc1ccc(Cl)cc1)CN1CCCCC1 (stereo not drawn) | 0.152
53 | COc1ccccc1-c1nc2c(c(SCC(=O)N3CCCCC3)n1)Cc1c(CO)cnc(C)c1O2 | 12.4
54 | Nc1nc(SCC(=O)c2cc(F)ccc2F)n[nH]1 | 14.3
55 | CCOc1ccc(CN2CCN(Cc3ccc(C)o3)CC2CCO)cc1 (stereo not drawn) | -87.8
56 | CCN(CC)CCCNC(=O)CC1Oc2ccc(C)cc2NC1=O (stereo not drawn) | 6.63
57 | COCCN(CCOC)S(=O)(=O)c1ccc(C(=O)Nc2sc3c(c2C(N)=O)CCCCC3)cc1 | 14.5
58 | CC(C)(C)c1cc[n+](CC(=O)Nc2cc(C(F)(F)F)ccc2N2CCOCC2)cc1.[Cl-] | 5.44
59 | O=C(NCc1cc([N+](=O)[O-])ccc1O)c1cccnc1Sc1ccccc1 | -1.12
60 | COc1ccccc1N1CCN(/N=C/c2ccc(C(=O)O)cc2)CC1 | 8.32
61 | CCCSc1nnc2n(N)c(=O)c3ccccc3n12 | 11.3
62 | COC(=O)c1[nH]c2c(c1C(=O)OC)CCc1ccccc1-2 | 10.1
63 | Cc1ccc(NC(=O)CCc2ccc(C)o2)c(Br)c1 | 9.76
64 | CCC(C)(C)NC(=O)c1ccc2c(c1)N(CC(=O)N1CCCC1)C(=O)C(C)(C)O2 | 13.3
65 | CC(C)(C)C(=O)Nc1nnc(-c2ccncc2)o1 | 13.4
66 | CCN(CC(=O)NCc1cccs1)C(=O)/C=C/c1ccc(Cl)c(Cl)c1 | -1.36
67 | CCCCN(C(=S)Nc1ccccc1)C1CCS(=O)(=O)C1 (stereo not drawn) | 10.4
68 | COc1ccc(NC2=C(C(C)=O)C(c3ccc(OC)c(OC)c3)C(C(C)=O)C(C)(O)C2)cc1 (stereo not drawn) | 4.5
69 | Cc1c(C2Nc3ccccc3NC3=C2C(=O)CC(C)(C)C3)cnn1C (stereo not drawn) | 11.3

Row | SMILES | hERG current change (%, negative = inhibition) at 1uM [%]
70 | C=CC(=O)Oc1ccc(N2Cc3ccccc3C2=O)cc1 | 18.5
71 | CCn1ccnc1CN1CCCC(CO)(Cc2cccc(OC)c2)C1 (stereo not drawn) | -1.48
72 | Cc1c(N=NC2=C(O)CC(C)(C)CC2=O)c(=O)n(-c2ccccc2)n1C | 9.85
73 | COc1ccc(C(=O)c2cc([N+](=O)[O-])ccc2N2CCOCC2)cc1 | 5.63
74 | N#Cc1ccc(NC(=O)Nc2ccc(Oc3ccc(NC(=O)Nc4ccc(C#N)cc4)cc3)cc2)cc1 | 11.8
75 | Cc1cccc(OCC(=O)N/N=C/c2cccn2C)c1 | 4.13
76 | O=C(c1ccccc1F)N(Cc1cccnc1)Cc1cc2cc3c(cc2[nH]c1=O)OCCO3 | 5.77
77 | CCCCCC(=O)N1CCN(c2ccc(C(C)=O)cc2F)CC1 | -26.4
78 | CC(C)Oc1ccc(C(CC(=O)O)NC(=O)c2cccs2)cc1 (stereo not drawn) | 5.87
79 | CN(C)CC1CSCCC1(O)c1ccc(Cl)cc1.Cl (stereo not drawn) | 8.16
80 | COc1ccc(NC(=S)c2ccc(N(C)C)cc2)cc1 | -2.35
81 | COc1ccc(OC)c(NC(=O)CN(Cc2ccccc2)S(C)(=O)=O)c1 | -0.446
82 | CCOC(=O)c1ccc(NC(=O)c2nc[nH]c2C(=O)N[C@@H](CC(C)C)C(=O)OCc2ccccc2)cc1 | -0.812
83 | O=CNCc1nc2ccccc2n1CCc1ccccc1 | 15.1
84 | COc1ccccc1NC(=O)CSc1nc(O)cc(=O)n1-c1ccccc1OC | 13.4
85 | Cc1cc(C)n(-c2nc(-n3nc(C)cc3C)c3c4c(sc3n2)COC(C)(C)C4)n1 | 13.8
86 | O=C(NCCc1csc(-c2cccnc2)n1)c1ccc(Cl)cc1 | 7.35
87 | Cn1cc(/C=N/NC(=O)c2cc3cc(Br)ccc3o2)c2ccccc21 | 9.31
88 | CCCc1n[nH]c2c1C(=O)CC(C)(C)C2 | 10.9
89 | CC1CCCCN1CCNC(=O)CC1Oc2ccccc2NC1=O (stereo not drawn) | 5.21
90 | Cn1c(/C(C#N)=C(\O)COc2ccc3ccccc3c2)nc2ccccc21 | 12.8
